Measurements reported in PubChem BioAssay AID1963576 (National Center for Advancing Translational Sciences (NCATS), 2024).
In all, about 46,000 compounds went through this assay and about 60 (0.1%) were called active. Not shown: some 3% with an inconclusive outcome. Calls come from the whole dose curve; as a rule, active = well fitted inhibition curve with a large enough effect; inconclusive = small, poorly fitted or top-dose-only effect; inactive = no such curve, though single readings can be large or run the other way. The list shows a part of the results.

Experiment: Primary qHTS assay for Inhibitors of ovarian cancer metastasis using an organotypic tumor microenvironment (TME) model.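 For activity change, negative = inhibition: plate controls were DMSO wells for no effect and tomatine positive control wells for full effect.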 Note: nearly all actives have a fitted effect of over 65% in size.
Details: SKOV3ip1-GFP adhesion/invasion on 3D omental model, fluorescence; series mostly up to 45.8 µM; activity change, negative = inhibition: at the top concentration
In short: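 Primary human omental fibroblast/mesothelial 3D culture pre-formed 48 h. SKOV3ip1-GFP cells added with compounds (0.36-46 umol/L), incubated 2 h RT/16 h 37 C, fixed; GFP cells quantified at 488/509 nm.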

Activity change, negative = inhibition, inactive:
CC[C@H]1CN2CCc3cc(OC)c(OC)cc3[C@H]2C[C@@H]1C[C@@H]1NCCc2cc(OC)c(OC)cc21 8.37%
COc1ccc(C[C@@H](C)[C@@H](C)Cc2ccc(OC)c(OC)c2)cc1OC 16.5%
CCOC(=O)c1ccccc1NC(=O)CN1C(=O)CC(c2ccco2)Sc2ccccc21 (stereo not given) -4.08%
Cc1ccc2c(c1)sc1nc(-c3cc4ccccc4oc3=O)cn12 1.43%
COc1ccc(N2CCN(c3c4c(nc5nncn35)CCC4)CC2)cc1 2.49%
COc1ccc(NC(=O)C(=O)NCC(c2ccc3c(c2)OCO3)N2CCN(C)CC2)cc1 (stereo not given) 15%
Cc1ccc(C(=O)Nc2ccc(C(=O)OCc3cc(=O)n4nc(C5CC5)sc4n3)cc2)cc1 4.04%
Cc1oc(-c2ccc(Cl)cc2)nc1Cn1c(=O)cc(C)c2c(C)nn(-c3cccc(F)c3)c21 -8.73%
CC(=O)Nc1cccc(NC(=O)CSc2cn(CC(=O)N(C(C)C)C(C)C)c3ccccc23)c1 -6.83%
CCc1ccccc1NC(=O)CSc1ncc(S(=O)(=O)c2ccccc2)c(N)n1 9.19%
COc1ccc(CCNC(=O)c2cc(Nc3cc(C)cc(C)c3)nc3ccccc23)cc1OC -18.2%
CC(=O)c1cccc(NC(=O)c2cccn2-c2nnc(N3CCCCC3)s2)c1 20%
COc1ccccc1Cn1c(CNS(=O)(=O)c2ccccc2Cl)nc2cccnc21 -7.36%
CCOc1ccc(NC(=O)c2cc3c(n(-c4ccc(OC)cc4)c2=O)CC(C)(C)CC3=O)cc1 3.19%
O=C(NCCCN1CCN(c2cccc(Cl)c2)CC1)Nc1ccccc1C(F)(F)F -7.38%
CCN(c1cccc(C)c1)S(=O)(=O)c1ccc2c(c1)NC(=O)CCS2 4.8%
CCN(CC)C(=O)Cn1cc(SCC(=O)Nc2ccccc2F)c2ccccc21 -4.14%
CCOC(=O)c1ccc2c(c1)N(CC(=O)Nc1ccc(C)cc1C)C(=O)c1ccccc1S2 20.2%
CCOC(=O)Cn1c(=O)oc2cc(S(=O)(=O)N3CCN(c4ccccc4F)CC3)ccc21 5.33%
CNc1nc(-c2ccc3c(N)n[nH]c3c2)cc(N2C[C@@H](C(=O)NC3CCCCC3)CC[C@@H]2C)n1 -27%
CC(C)NC(=O)CC(=O)Nc1ccc2nc3n(c(=O)c2c1)CCCCC3 21.3%
CCOc1ccccc1NC(=O)C(NS(=O)(=O)c1ccc2c(c1)CCC(=O)N2)c1ccccc1 (stereo not given) 1.57%
O=C(c1ccc(F)cc1)N1CCC(c2nc3ccccc3o2)CC1 20.2%
CSc1cccc(NC(=O)C2CCN(c3ncnc4c3nc3n4CCCCC3)CC2)c1 -1.74%
Cc1nn(C(=O)COc2ccccc2)c(C)c1Sc1ccccc1 -9.81%
CCOc1ccc(CC(=O)NCCc2csc(-c3ccc(C(F)(F)F)cc3)n2)cc1 0.146%
CCCCOc1ccc(C(=O)N2CCC(c3nc4ccccc4o3)CC2)cc1 -23%
CCOC(=O)c1ccc(NC(=O)C2=C(C)Nc3nc(SCc4ccc(Cl)cc4)nn3C2c2ccc(C)cc2)cc1 (stereo not given) 6.34%
O=C(NC1CCOCC1)c1ccc(-c2cc(-c3cn[nH]c3-c3ccccn3)ccn2)cc1 -24.8%
CC(C)(C)c1ccc(Oc2nc3ccccn3c(=O)c2/C=C(\C#N)c2nc3ccccc3[nH]2)cc1 0.606%
COc1ccc(CNC(=O)c2ccc3c(c2)N(C)C(=O)C2CCCCN32)cc1OC (stereo not given) -0.306%
COC(=O)c1sc2cccc(F)c2c1S(=O)(=O)N1CCN(c2ccccc2OC)CC1 -25.8%
COc1ccc(OC)c(NC(=O)CSc2nc(-c3ccccc3C)nc3cc(=O)[nH]n23)c1 -25.2%
CC(NC(=O)c1nn(C)c2c1CSc1ccccc1-2)c1ccccc1 (stereo not given) -10.7%
CC1CCN(C(=O)CN2CCSc3ccccc32)CC1 -38%
COc1ccc(CNc2ccc3cc(S(=O)(=O)N4CCCCC4)ccc3n2)cc1 2.76%
O=C(Cc1ccccc1)Nc1c(C(=O)N2CCN(c3ccc(F)cc3)CC2)oc2ccccc12 -6.57%
COc1cc(OC)cc(C(=O)N2CCC(c3ccncc3)CC2)c1 1.68%
O=C(CCS(=O)(=O)c1cccs1)Nc1ccc(C(=O)Nc2cccc(Cl)c2)cc1 6.9%
CCC(=O)N1CCCc2cc(S(=O)(=O)N3CCC(C(=O)Nc4ccc(F)c(F)c4)CC3)ccc21 -10.4%
CC(=O)c1cccc(NC(=O)CCCN2C(=O)COc3ccc(C)cc32)c1 7.56%
CCOc1ccc(C(=O)Nc2nnc(S(=O)(=O)N(CC)c3ccccc3C)s2)cc1 -0.457%
O=C(NCCc1ccccc1)c1ccc2c(c1)CCN2S(=O)(=O)c1ccc(Br)cc1 5.16%
Cc1ccc(-c2cc(NC(=O)C(C)Oc3ccc(C)c(C)c3)on2)cc1 (stereo not given) -20.1%

outcome, inactive:
CCc1ccccc1NC(=O)Cn1nnc(-c2nc(-c3ccc(C)cc3)no2)c1N
CCn1cc(C(=O)N2CCN(c3ccc(F)cc3)CC2)c(=O)c2cc(S(=O)(=O)N3CCOCC3)ccc21
CCOc1cc(CNC(=O)CCCn2c(=O)c3cccn3c3cccnc32)cc(OCC)c1OCC
O=C(NC1CC(=O)N(c2ccccc2)C1)c1ccc(Br)o1 (stereo not given)
Cc1cccc(N(CC(=O)NCCSCc2ccc(Cl)cc2)S(C)(=O)=O)c1C
COc1cccc(CNC(=O)C2CCN(c3nn4c(=O)cc(C)nc4s3)CC2)c1
Cc1c(Cl)cccc1Nc1nn2c(=O)c3ccc(C(=O)NCCc4ccccc4)cc3nc2s1
O=C(COCc1cc(-c2cccs2)on1)Nc1cccc(Cl)c1Cl
COc1ccc(NC(=O)CN2C(=O)COc3ccc(S(=O)(=O)Nc4ccccc4)cc32)cc1OC
O=C(NC1CCCCCC1)c1cc2c(Cl)nc3ccccc3c2s1
O=C(c1ccc2c(c1)N(Cc1ccc(Cl)cc1)C(=O)c1ccccc1S2=O)N1CCN(c2ccccc2F)CC1 (stereo not given)
COc1ccc(-c2nc(C(N)=O)c3c(n2)n(-c2ccccc2OC)c(=O)n3C)c(OC)c1
O=C(CCC(=O)N1CC2CCCN2c2ccccc21)NCc1ccccc1 (stereo not given)
O=C(Nc1ccc(SC(F)F)cc1)c1cc(-c2cccs2)on1
Cc1ccc(C)c(NC(=O)CN2C(=O)CSc3nc(C)cc(C)c32)c1
COc1ccc(N2CC(c3nc(-c4cc(OC)c(OC)c(OC)c4)no3)CC2=O)cc1Cl (stereo not given)
